In patent US20090170849A1, “QUINAZOLINONE DERIVATIVES HAVING B-RAF INHIBITORY ACTIVITY” (ASTRAZENECA AB, priority 2006, published 2009):

What follows are molecules tested against Mutant B-Raf (V600E) enzyme (MT B-Raf) (Homo sapiens, UniProt P15056, V600E) (assay: B-Raf in-vitro AlphaScreen Assay). Conditions: purified full length His-tagged Mutant B-Raf (V600E), phosphorylation of biotinylated HIS-MEK-AVI.
Assay type: biochemical
Procedure: B-Raf in-vitro AlphaScreen Assay
MT B-Raf was expressed in insect cells and affinity purified by Ni^+2 agarose followed by Q-Sepharose chromatography. Typical yield was 1.08 mg/ml at >90% purity. The phosphorylation of the MT B-Raf substrate in the presence and absence of the compound of interest was determined. Briefly, 5 μl of enzyme/substrate/adenosine triphosphate (ATP) mix consisting of 0.12 nM MT B-Raf, 84 nM biotinylated HIS-MEK-AVI, and 24 μM ATP in 1.2× buffer was preincubated with 2 ul of compound for 20 minutes at 25° C. Reactions were initiated with 5 μl of Metal mix consisting of 24 mM MgCl2 in 1.2× buffer and incubated at 25° C. for 60 minutes and reactions were stopped by addition of 5 μl of Detection mix consisting of 20 mM HEPES, 102 mM ethylenediamine tetraacetic acid, 1.65 mg/ml BSA, 136 mM NaCl, 3.4 nM Phospho-MEK1/2 (Ser217/221) antibody (Catalog #9121, Cell Signaling Technology, MA), 40 μg/ml Streptavidin donor beads (Perkin Elmer, MA, Catalog #6760002), and 40 μg/ml Protein A acceptor beads (Perkin Elmer, MA, Catalog #6760137). Plates were incubated at 25° C. for 18 hours in the dark. Phosphorylated substrate was detected by an EnVision plate reader (Perkin Elmer, MA) 680 nm excitation, 520-620 nm emission. Data was graphed and IC50s calculated using Excel Fit (Microsoft).

IC50 [µM] | SMILES
0.1 | Cc1ccc(C(=O)Nc2cccc(C(C)(C)C#N)c2)cc1Nc1ccc2ncn(C)c(=O)c2c1 [Example 1, N-[3-(1-Cyano-1-methylethyl)phenyl]-4-methyl-3-[(3-methyl-4-oxo-3,4-dihydroquinazolin-6-yl)amino]benzamide]
0.075 | Cc1ccc(C(=O)NC2CCCC(C(F)(F)F)C2)cc1Nc1ccc2ncn(C)c(=O)c2c1 (stereo not drawn) [Example 7, 4-Methyl-3-[(3-methyl-4-oxo-3,4-dihydroquinazolin-6-yl)amino]-N-[3-(trifluoromethyl)cyclohexyl]benzamide]
0.044 | Cc1ccc(C(=O)Nc2ccnc(C(F)(F)F)c2)cc1Nc1ccc2ncn(C)c(=O)c2c1 [Example 9, 4-Methyl-3-[(3-methyl-4-oxo-3,4-dihydroquinazolin-6-yl)amino]-N-[2-(trifluoromethyl)pyridin-4-yl]benzamide]
